This is one part of the list.
System: HSkMC (human skeletal muscle cells)
Experiment: cytotoxicity call (relative viability < 0.9)
Details: 10 µM

SMILES	cytotoxicity call
COc1ccc(CN(C)C[C@@H]2OCCCC[C@H](C)Oc3ccc(NC(=O)CCC(F)(F)F)cc3C(=O)N([C@@H](C)CO)C[C@H]2C)cc1	inactive
CC(C)CC#Cc1ccc2c(c1)O[C@@H](CN(C)C(=O)Cc1ccccn1)[C@@H](C)CN([C@@H](C)CO)S2(=O)=O	inactive
CC(=O)NCCCS(=O)(=O)[O-].CC(=O)NCCCS(=O)(=O)[O-].[Ca+2]	inactive
C[C@@H]1CN([C@@H](C)CO)C(=O)c2cc(-c3cccnc3)cnc2O[C@H]1CN(C)Cc1ccc(-c2ccccc2)cc1	inactive
NCc1cccc(-n2cccn2)c1	inactive
O=C(O)CCCCN(CCc1ccccc1OCc1ccc(CCc2ccccc2)cc1)Cc1ccc(C(=O)O)cc1	inactive
C[C@@H]1CN([C@H](C)CO)C(=O)c2cc(NC(=O)Nc3ccc4c(c3)OCO4)ccc2O[C@@H]1CN(C)C(=O)Nc1cccc2ccccc12	active
CNC[C@@H]1Oc2c(NS(=O)(=O)c3cn(C)cn3)cccc2C(=O)N([C@@H](C)CO)C[C@H]1C	inactive
NCC[C@H]1CC[C@@H](NC(=O)C2CCCCC2)[C@H](CO)O1	inactive
Cl.NCCCCC(N)C(=O)O (stereo not given)	inactive
C[C@@H]1CCCCO[C@H](CN(C)C(=O)Nc2ccc(F)cc2)[C@@H](C)CN([C@@H](C)CO)C(=O)c2cc(NC(=O)c3ccncc3)ccc2O1	inactive
C[C@@H]1CCCCO[C@H](CN(C)C(=O)Cc2ccccc2)[C@H](C)CN([C@@H](C)CO)C(=O)c2cc(NC(=O)Nc3ccc4c(c3)OCO4)ccc2O1	inactive
C[C@H](CO)N1C[C@H](C)[C@@H](CN(C)Cc2ccc(C(F)(F)F)cc2)OCCCC[C@H](C)Oc2ccc(NC(=O)c3ccccc3)cc2C1=O	inactive
C[C@H](CO)N1C[C@H](C)[C@H](CN(C)C(=O)Nc2ccccc2)OCCCC[C@H](C)Oc2ccc(NS(=O)(=O)c3cccs3)cc2C1=O	inactive
C[C@H]1CCCCO[C@@H](CN(C)Cc2ccc3c(c2)OCO3)[C@@H](C)CN([C@@H](C)CO)C(=O)c2cc(NC(=O)Nc3ccc(F)cc3)ccc2O1	inactive
CCOc1ccc(Cc2nccc3cc(OCC)c(OCC)cc23)cc1OCC.Cl	inactive
C[C@@H]1CN([C@H](C)CO)C(=O)c2c(c3ccccc3n2C)-c2ccccc2CO[C@@H]1CN(C)Cc1ccccc1C(F)(F)F	active
C[C@H]1CN([C@@H](C)CO)C(=O)Cc2cc(NC(=O)Nc3ccc(C(F)(F)F)cc3)ccc2O[C@H]1CN(C)C(=O)Nc1ccc(C(F)(F)F)cc1	active
C[C@H](CO)N1C[C@H](C)[C@H](CN(C)S(C)(=O)=O)Oc2ccc(NC(=O)CCCN(C)C)cc2CC1=O	inactive
C[C@H](CO)N1C[C@H](C)[C@@H](CN(C)C(=O)NC2CCCCC2)Oc2c(NC(=O)Nc3cccc4ccccc34)cccc2C1=O	active

SMILES	cytotoxicity call
COc1ccc(S(=O)(=O)N(C)C[C@@H]2Oc3c(NC(=O)C4CCOCC4)cccc3C(=O)N([C@H](C)CO)C[C@@H]2C)cc1	inactive
COc1cc(O)c(C(C)=O)c(OC)c1	inactive
Cc1noc(C)c1NC(=O)Nc1cccc2c1O[C@H](CN(C)Cc1ccc(-c3ccccc3)cc1)[C@@H](C)CN([C@@H](C)CO)C2=O	inactive
C[C@@H]1CN([C@@H](C)CO)C(=O)c2cc(NS(=O)(=O)c3cn(C)cn3)ccc2O[C@H]1CN(C)S(=O)(=O)c1cccs1	inactive
COc1ccc2c3c(n(c2c1)C)[C@@H](CO)N(C[C@]13CCN(CC1)C(=O)CN1CCOCC1)C(=O)Nc1ccc(cc1)F	inactive
Cc1ccc(S(=O)(=O)N(C)C[C@@H]2OCCCC[C@@H](C)Oc3ccc(NS(C)(=O)=O)cc3C(=O)N([C@@H](C)CO)C[C@H]2C)cc1	inactive
CCOc1nc2cccc(C(=O)O)c2n1Cc1ccc(-c2ccccc2-c2nnn[nH]2)cc1	inactive
C[C@H]1CN([C@@H](C)CO)C(=O)c2cc(NC(=O)Cc3cn(C)c4ccccc34)ccc2O[C@H]1CN(C)Cc1ccc(C(=O)Nc2ccccc2N)cc1	inactive
Cc1ccc(NC(=O)N(C)C[C@@H]2OCCCC[C@H](C)Oc3ccc(NC(=O)C4CCCCC4)cc3C(=O)N([C@H](C)CO)C[C@@H]2C)cc1	inactive
C[C@H](CO)N1C[C@H](C)[C@@H](CN(C)C(=O)CCC(F)(F)F)OCCCC[C@H](C)Oc2ccc(NS(=O)(=O)c3ccc(Cl)cc3)cc2C1=O	inactive
CCCNC(=O)N(C)C[C@@H]1Oc2cc(C#Cc3cccc(F)c3)ccc2S(=O)(=O)N([C@H](C)CO)C[C@@H]1C	inactive
CCCNC(=O)N1C[C@@H](O)COC[C@@H]2O[C@@H](CC(=O)N3CCN(C)CC3)CC[C@H]21	inactive
Cc1cncc2cccc(S(=O)(=O)N[C@H]3CN[C@H](COC(=O)NCCOCCOCCN)C3)c12	inactive
C[C@@H]1CCCCO[C@@H](CN(C)Cc2ccc(Cl)c(Cl)c2)[C@@H](C)CN([C@@H](C)CO)C(=O)c2cc(NC(=O)Nc3cccc4ccccc34)ccc2O1	inactive
CCC(C)(C)NC(=N)NC#N	inactive
COc1ccccc1-c1cnc2c(c1)C(=O)N([C@H](C)CO)C[C@@H](C)[C@H](CN(C)C(=O)c1cccnc1)O2	inactive
NC(=O)C1CCN(C(=O)c2ccco2)CC1	inactive
C[C@@H]1CN([C@@H](C)CO)C(=O)c2cc(NC(=O)Cn3cnnn3)ccc2O[C@@H]1CN(C)S(=O)(=O)c1cn(C)cn1	inactive
Cc1ccc(S(=O)(=O)N(C)C[C@H]2Oc3ncc(-c4ccncc4)cc3C(=O)N([C@@H](C)CO)C[C@H]2C)cc1	inactive
COc1ccc(-c2cccc(-c3nc(C(=O)NCC(F)(F)F)cc4c3[C@H](CCO)N([S@@](=O)C(C)(C)C)C4)c2)cc1	inactive
